According to PubChem BioAssay AID1461 (National Center for Advancing Translational Sciences (NCATS), 2008):
Among all 220,000 compounds or so, about 2,300 (1%) were called active. Inconclusive means that the source gave no clear call. Such entries were picked first, then a sample of the others. The call rests on the fitted dose curve; in most records, active means well fitted inhibition curve with a large enough effect; inconclusive means small, poorly fitted or top-dose-only effect, or effect the other way; inactive means no such curve, though single readings can be large or run the other way. No potency is given beside an inconclusive call; the fits are too rough.

These compounds were tested against Neuropeptide S receptor (Homo sapiens) (UniProt Q6W5P4) (assay: qHTS Assay for Antagonists of the Neuropeptide S Receptor: cAMP Signal Transduction). Details: CHO-NPSR cells, cAMP TR-FRET, antagonist mode; activity change, negative = inhibition: at 38.3 µM (top of the series) unless noted.
Sequence of UniProt Q6W5P4 (Q6W5P4 whole entry, looked up): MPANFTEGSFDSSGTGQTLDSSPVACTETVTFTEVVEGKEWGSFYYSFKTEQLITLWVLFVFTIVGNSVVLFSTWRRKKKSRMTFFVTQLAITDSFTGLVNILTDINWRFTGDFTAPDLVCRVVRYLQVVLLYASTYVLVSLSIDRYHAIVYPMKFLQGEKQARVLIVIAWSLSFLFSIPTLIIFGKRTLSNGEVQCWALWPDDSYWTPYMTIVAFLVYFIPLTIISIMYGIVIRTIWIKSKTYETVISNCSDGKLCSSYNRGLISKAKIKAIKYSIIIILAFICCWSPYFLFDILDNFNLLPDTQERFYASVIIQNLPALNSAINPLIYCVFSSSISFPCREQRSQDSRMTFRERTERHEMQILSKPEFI
Further: nearly all actives have a fitted effect of over 50% in size.
On the % scale 0 is the no-effect control and ±100 the full control effect; potency means the concentration at half of the fitted maximal effect; tags describe the fitted curve by direction and shape.

Structure (SMILES)	Potency	activity change, negative = inhibition
CC(C)(C)c1ccc(S(=O)(=O)Nc2ccc(Cc3ccncc3)cc2)cc1	inconclusive [inhibitor, single point]	
Cc1cc(NC(=O)CSc2nc3c(c(-c4cccnc4)c2C#N)CCC3)no1	inconclusive [activator, single point]	
CCCCCn1c(CN2CCN(c3cccc(Cl)c3)CC2)nc2c1c(=O)n(C)c(=O)n2C	inconclusive [inhibitor, single point]	
CCOC(=O)c1cnc(-n2nc(C)cc2C)nc1NCc1ccc2c(c1)OCO2	inconclusive [inhibitor, single point]	
O=C(NCCc1c[nH]c2ccccc12)c1cc(S(=O)(=O)N2CCCCC2)ccc1N1CCOCC1	inconclusive [inhibitor, single point]	
COc1ccc(C(=O)NCC(=O)OCC(=O)Nc2cc([N+](=O)[O-])ccc2F)cc1		inactive: 8.41%
Fc1ccc(CSc2nc3ncc(Br)cc3[nH]2)cc1	inconclusive [activator, single point]	
CCCCNc1nc(N(C)c2ccccc2)nc(-n2ccnc2)n1	inconclusive [inhibitor, single point]	
CC(C)C(=O)N1CCN(c2ccc(NC(=O)c3ccc(Br)o3)cc2)CC1		inactive: -11.3% [at 46.1 µM]
CCc1c(C)nc(Nc2nc(C)c3ccc(OC)cc3n2)[nH]c1=O		inactive: -17.4% [at 46.1 µM]
CSc1nnc(-c2ccc(C(F)(F)F)cn2)o1	inconclusive [activator, single point]	
O=C(OCc1ccc2c(c1)OCO2)c1ccc(S(=O)(=O)N2CCCC2)cc1		inactive: -22.5% [at 46.1 µM]
S=c1[nH]nc(-c2ccccc2)n1/N=C/c1cccs1		inactive: -11.6% [at 46.1 µM]
Cc1ccc2c(c1)nnn2C1CCN(S(=O)(=O)c2ccc(C(=O)N3C(C)CCCC3C)cc2)CC1 (stereo not given)	inconclusive [inhibitor, single point]	
N#CC1=C(Nc2ccccc2)SC=C(c2ccccc2)N=C1N1CCOCC1		inactive: -0.0051% [at 46.1 µM]
Cc1cccc(Cn2c(Cc3ccccc3)nc3ccccc32)c1	inconclusive [inhibitor, single point]	
Cc1ccc(S(=O)(=O)N(CC(=O)NCCC2=CCCCC2)Cc2ccccc2)cc1	inconclusive [inhibitor, partial curve]	
Cc1ccc(-c2cc(C(F)F)n3ncc(C(=O)N4CCN(c5cccc(C)c5C)CC4)c3n2)cc1	inconclusive [inhibitor, partial curve]	
Cc1ccc(-c2nnc3sc(C4COc5ccccc5O4)nn23)cc1 (stereo not given)		inactive: -24% [at 46.1 µM]
CCc1nc(N2CCCC(C)C2)c2oc3ccccc3c2n1 (stereo not given)	inconclusive [inhibitor, single point]	
CCOC(=O)N1CCN(C(=O)c2ccc3c(c2)N(Cc2ccc(C)cc2)CCS3)CC1	inconclusive [inhibitor, single point]	
CN(C)c1oc(-c2ccccc2Cl)nc1P(=O)(c1ccccc1)c1ccccc1	inconclusive [inhibitor, partial curve]	
N#C/C(=C\c1ccc([N+](=O)[O-])o1)c1nc2ccccc2[nH]1	active: 3.98 µM	

Structure (SMILES)	Potency	activity change, negative = inhibition
O=C(/C=C/c1cc(Br)ccc1O)c1ccco1	inconclusive [inhibitor, single point]	
Cc1ccc(-c2cc(C(=O)OCC(=O)Nc3cc(C)on3)c3ccccc3n2)c(C)c1	inconclusive [inhibitor, single point]	
COC(=O)c1cc(COc2ccc3oc(C)c(C(=O)OC(C)C)c3c2)c(C)o1	inconclusive [inhibitor, partial curve, poor fit]	
CCn1c(=O)cc(OCC(=O)N2CCCC2)c2ccccc21		inactive: -5.79% [at 46.1 µM]
COc1ccc2nc(N/C(N)=N/S(C)(=O)=O)nc(C)c2c1		inactive: 34.7%
COc1cc(/C=N/NC(=O)c2cccc([N+](=O)[O-])c2)ccc1OCc1ccc(C)cc1		inactive: -3.64% [at 46.1 µM]
Cc1ccc(-c2ccc(/C=N/NC(N)=S)o2)cc1	active: 6.31 µM	
O=C(COC(=O)c1ccc([N+](=O)[O-])s1)NC(c1ccccc1)c1ccccc1		inactive: -4.34%
CC(C)(C)C1CCC(=NNc2ncc(C(F)(F)F)cc2Cl)CC1 (stereo not given)		inactive: -1.34% [at 46.1 µM]
CCC[C@@H]1C[C@@]1(CCC)[C@@H](NP(=O)(c1ccccc1)c1ccccc1)c1ccc(C(=O)OC)cc1	inconclusive [inhibitor, single point]	
Cc1ccc(CCNC(=O)C2CCCN(S(=O)(=O)c3c(C)noc3C)C2)cc1 (stereo not given)	inconclusive [inhibitor, single point]	
CC(C)c1ccc(-c2noc(C3CCCN(C(=O)c4ccc(F)cc4F)C3)n2)cc1 (stereo not given)	inconclusive [inhibitor, partial curve]	
O=C(NCC(c1cccnc1)N1CCN(c2ccc(F)cc2)CC1)c1cccc(Cl)c1 (stereo not given)	inconclusive [inhibitor, partial curve]	
CCOC(=O)C1=C(C)NC(C)=C(C(=O)OCC)C1c1ccc(Br)o1	inconclusive [inhibitor, single point]	
CC1CC(C)CN(C(=O)CSc2nc3ccsc3c(=O)n2Cc2ccccn2)C1 (stereo not given)	inconclusive [inhibitor, single point]	
Cc1cc(C(C)(C)C)oc1C(=O)N(CC(=O)NC1CCCC1)c1ccc(F)cc1	inconclusive [inhibitor, partial curve]	
CN(C)c1cccc(C(=O)OCCNC(=O)c2cccc(S(=O)(=O)N3CCOCC3)c2)c1		inactive: -1.09%
O=C(CSc1cccc[n+]1[O-])Nc1cc([N+](=O)[O-])ccc1Cl		inactive: 13.4%
CCCCn1ccnc1C(=O)c1cc(S(=O)(=O)N2CCOCC2)ccc1C		inactive: -4.97% [at 46.1 µM]
C=C(C)[C@@H]1CC=C(CN2CCC(CCOC)(C(=O)OCC)CC2)CC1		inactive: -6.44%
Cc1ccc(-c2nnn(CC(=O)N(CC(=O)NCc3ccccc3)c3cccc(C)c3C)n2)o1	inconclusive [inhibitor, single point]	
O=C(O)Cc1cn(Cc2cccc(Cl)c2)c2ccccc12		inactive: -19.4%
